Values marked as one replicate rest on one cluster of the flow cell; about a third of the high ones do not repeat.
System: ATP
Assay: switch fluorescence ratio, 500 uM ATP over buffer (Cy3 cluster intensity, sum of 5 cycles each) (fold (ratio)); higher = stronger signal-on switching upon ATP binding; sequences stand for … in TCGTCGGCAGCGTCAGATGTGTATAAGAGACAGTTTTTTTTTTTTTTTTTTTTTTTTT…TC
Details: aptamer strand: ATP DNA aptamer (quencher-CACCTGGGGGAGTATTGCGGAGGAAGG + anchor), 100 nM annealed; ATP concentration: 500 uM; one replicate
Method in brief: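 For every switch-domain sequence, the fluorescence ratio is the mean of per-cluster values, each being summed target-cycle Cy3 intensity over summed buffer-cycle Cy3 intensity. Clusters outside 100-1000 RFU were excluded. On a modified Illumina MiSeq flow-cell, the Cy3-labelled switching-strand clusters were annealed to 100 nM quencher-labelled ATP aptamer, imaged in selection buffer and then after 15 min with 500 uM ATP at 22 °C. Five such cycles were run, with NaOH stripping and re-annealing between them.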
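Further: ATP exposure 15 min at 22 °C before imaging.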

Sequence | switch fluorescence ratio
CGACTAGGAT | 1.01
TCATCAGGTT | 1.05
GGTTAAAATA | 0.973
GTAAAAAAGA | 0.986
GCCGAAAGGC | 1.04
CGAAGCGGAA | 1.8
TGCGTTTCCC | 1.29
GCTGTTTTG | 1.01
GATTTAAGCC | 1.09
GAGTCTGCTT | 1.06
CGAATGAACA | 0.984
TTGTTCGCGA | 1.04
TAGTGGTGG | 1.03
AGTGGCAGGA | 0.995
GCTAAAATCA | 0.986
CGCCACCTTA | 1.02
ATGCGGGAA | 1.03
TATGTGGTT | 1.01
TAAATTGCTG | 0.987
AGTGCGTTCT | 0.99
GTTTGTATTG | 1.01
CGCCAAAAGG | 0.99
GGGACTACAG | 0.904

Sequence | switch fluorescence ratio
AAACGAGATT | 0.998
GGCCCATTTG | 1.03
TCCCGCGAAG | 1.21
GTGGCTCCGC | 1.5
TAAGACTTTC | 1.03
CATCAAGCAG | 2.31
GTTGTGATGC | 1.12
GCCATTACAT | 0.947
GGGCACGGGA | 0.989
CCTTTCGGCC | 1.16
TTGAGGCGTT | 1.05
CAAGTGGGGT | 0.983
CCGAATAATC | 4.19
ATCCTA | 1.02
AGTGACGACC | 1.31
ATAGCCTTTA | 1
CTAAGGACGA | 1.03
GGGCGCGCG | 1.02
AACAAAGA | 0.985
CAAAGTACTG | 1.15
GTACGAAATG | 1.05
TGGTTACTCT | 0.993
ACACACGCTC | 1.35

Sequence | switch fluorescence ratio
GCAGGCCCGT | 1.03
TCCAGGGCCA | 1.03
GGTGTGGATA | 1.03
TTCCATTTCC | 1.13
TATCTTGCTC | 1.02
TGCCATCAAC | 1.01
TTCCACTCCG | 1.24
TTCTGGCA | 1.09
GAAGTTAATT | 0.962
TCAGGTTTGC | 1
GGATTCTACC | 1.06
TACATAGCGT | 1.05
CGCTTGACTG | 1
ACCCACCGGG | 1.06
CAGTGGGAGG | 0.966
AGATGTGATT | 1.01
GGGATGATCT | 1.05
TGCTTTGGGT | 1.02
GGGGAGTGGA | 0.974
TATAGTCAAC | 1.03
AAGGGAAGAG | 1.03
TTGGCGCGT | 1.03
CACCCCCTTG | 1.38

Sequence | switch fluorescence ratio
CCTATTCGAT | 1.01
TCTCTCACAC | 2.69
TGGGCACTGG | 1.06
TAACCCATGC | 1.21
TTCTCGGATT | 1.06
GGCTTAAAAT | 0.988
ACTTTATTCA | 1.1
GCTCCCCTTT | 1.46
TAAAAGGCCA | 1.01
CTTTACATAA | 1.03
TTGCTAAGAC | 1.54
GGTAGGGAGT | 0.981
TATGTAGCGC | 1.02
AAGTTTGCC | 1.02
TTAGGACCGG | 0.994
TTGATCCGGA | 0.958
CCGTACCACT | 1.26
AAGAGTTGT | 0.996
GGGACGCTGG | 0.998
GGGGAATCG | 1.01
CAAGAGGCGC | 1.01
CTCTGGGAGT | 0.989
AGTGCCTGGA | 1.08

Sequence | switch fluorescence ratio
AGTGTCCAT | 1.03
GGTAACTTTC | 1.05
CTTTTATATA | 1
CCGGGCGGTT | 1.01
AATATCCCGC | 1.1
AGAGGACAGT | 1
TCGGGTTAAC | 1.02
AAATCTATTT | 0.969
CAGTCTGGGA | 0.978
GTTAGTTAT | 1.07
TTATTAGCCG | 0.969
TCAATACCAG | 1.05
AGCGTGATCG | 1.04
GGGCAGGGA | 0.997
CAGGGTTCTG | 0.951
AGATTGGTAT | 1.01
GTCGGTCATA | 0.981
TCGTCAGTCG | 0.888
TGTAGAAGTG | 1.12
CCGGTTAAAT | 1.08
CGATAACGTG | 0.971
ACATGTGGTA | 1.02
ACCTCTATTT | 1.1

Sequence | switch fluorescence ratio
TAGTGTGATA | 0.978
CGGTCCTTGC | 1.22
TCGGAGTCAG | 1.15
AACCTATATT | 0.977
ATAATTGCGC | 1.04
GCCAAGGGCG | 1.04
AGAGATGTCC | 0.962
AGTTTGACAG | 1
AAGCGATGG | 1.22
TAGTTGACCT | 1.23
ACAGATCGGC | 0.972
TACCATGGCT | 0.978
ATGTCCGACG | 1.12
GGGTCATGCG | 1.03
CGCATGTACA | 1.08
ACACATCTGG | 1.01
AAAGGGATT | 0.994
TTGTCATGGC | 0.995
CGAGACCTGC | 1.02
TAGCGTTGAT | 0.974
GGAGATAATA | 1.03
AATCTGGTAT | 1.01
TGTTGATCGG | 1.01

Sequence | switch fluorescence ratio
GTATGAAGTC | 0.997
GACCGTGGAG | 0.997
GGAATCCGGT | 1.03
TTCATCGTT | 1.01
CAAAAAGTAC | 1.05
GTTTGCTCAA | 0.981
CGAGATTCCG | 0.974
CGGGTAGTTT | 1.01
GCCAGCACCA | 1.03
CATTGACTCG | 1.02
TAATCTTCCG | 1.52
TAAATCAGAT | 1
ATTATACTCT | 1.04
ACAAGTGCAC | 1.04
AAGAGATATT | 1.02
GAAACGTTG | 0.956
AGGGGTTACT | 1.05
TAGGGAACGG | 1.07
ATTTCAATCC | 0.884
GCTGATAAGG | 1.02

Reference: the supplement of paper PMC10126150
